Reference: the supplement of paper PMC4967469
A lower IC50 marks a more sensitive line; a limit (>, <) means that the fit lies beyond the doses tested. AUC, from the same fit, is the share of area under the viability curve across the 256-fold dose range: 1 means no effect, lower means more sensitive. For some assays here: Any top dose called inferred was derived from the fitted curves, not read from the paper.

Experiments:
Assay in all cases: Viability of human cancer cell lines after 72 h of drug (GDSC screen)
AZD7762 = compound: NC(=O)Nc1cc(-c2cccc(F)c2)sc1C(=O)N[C@H]1CCCNC1 [AZD7762]; settings: top dose 2 µM
Method: (§1)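 Human cancer cell lines in 384-well plates, medium with 10% serum, drug for 72 h over a 256-fold dose range (nine 2-fold or five 4-fold steps up to the top dose). Adherent lines were fixed and stained with the nucleic acid dye Syto60, suspension lines read with resazurin; signal relative to control wells, capped at 0 and 100%. One two-parameter sigmoid per drug and line, fitted in a mixed model over all curves with the slope shared within a line.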

GSK-650394 = compound: O=C(O)c1ccc(-c2c[nH]c3ncc(-c4ccccc4)cc23)cc1C1CCCC1 [GSK-650394]; settings: top dose 16 µM; top dose inferred
Method: as §1

YK 4-279 = compound: COc1ccc(C(=O)CC2(O)C(=O)Nc3c(Cl)ccc(Cl)c32)cc1 [YK 4-279]; settings: top dose 10 µM
Method: as §1

NPK76-II-72-1 = compound: COc1cc(C(=O)NC2CCN(C)CC2)ccc1Nc1ncc2c(n1)N(C1CCCC1)C(C)CC(=O)N2C [NPK76-II-72-1]; settings: top dose 10.24 µM; top dose inferred
Method: as §1

Etoposide = compound: COc1cc([C@@H]2c3cc4c(cc3[C@@H](O[C@@H]3O[C@@H]5CO[C@@H](C)O[C@H]5[C@H](O)[C@H]3O)[C@H]3COC(=O)[C@H]23)OCO4)cc(OC)c1O [Etoposide]; settings: top dose 16 µM
Method: as §1

Bexarotene = compound: C=C(c1ccc(C(=O)O)cc1)c1cc2c(cc1C)C(C)(C)CCC2(C)C [Bexarotene]; settings: top dose 8 µM
Method: as §1

BMS-345541 = compound: Cc1ccc2nc(NCCN)c3ncc(C)n3c2c1 [BMS-345541]; settings: top dose 16 µM
Method: as §1

XAV 939 = compound: Oc1nc(-c2ccc(C(F)(F)F)cc2)nc2c1CSCC2 [XAV 939]; settings: top dose 5 µM; top dose inferred
Method: as §1

Cell Line | AUC (AZD7762) | IC50 (AZD7762) [µM] | AUC (GSK-650394) | IC50 (GSK-650394) [µM] | AUC (YK 4-279) | IC50 (YK 4-279) [µM] | AUC (NPK76-II-72-1) | IC50 (NPK76-II-72-1) [µM] | AUC (Etoposide) | IC50 (Etoposide) [µM] | AUC (Bexarotene) | IC50 (Bexarotene) [µM] | AUC (BMS-345541) | IC50 (BMS-345541) [µM] | AUC (XAV 939) | IC50 (XAV 939) [µM]
DSH1 (bladder, adherent) | 0.879 | 1.91 | 0.989 | > 16 | 0.947 | > 10 | 0.965 | > 10.2 | 0.632 | 2.28 | 0.974 | > 8 | 0.89 | > 16 | 0.988 | > 5
DU-145 (prostate, adherent) | 0.908 | > 2 | 0.77 | 6.79 | 0.812 | 6.14 | 0.906 | > 10.2 | 0.443 | 0.686 | 0.893 | > 8 | 0.956 | > 16 | 0.806 | 2.92
DU-4475 (breast, suspension) | 0.745 | 0.532 | 0.916 | > 16 | 0.896 | 8.26 | 0.914 | > 10.2 | 0.17 | 0.132 | 0.984 | > 8 | 0.748 | 4.35 | 0.989 | > 5
Daudi (Burkitt lymphoma, suspension) | 0.686 | 0.384 | 0.947 | > 16 | 0.823 | 4.91 | 0.907 | > 10.2 | 0.742 | 4.41 | 0.96 | > 8 | 0.889 | 14.1 | 0.987 | > 5
Detroit562 (head and neck, adherent) | 0.682 | 0.394 | 0.653 | 2.61 | 0.669 | 1.81 | 0.975 | > 10.2 | 0.828 | 9.39 | 0.956 | > 8 | 0.954 | > 16 | 0.986 | > 5
EB2 (Burkitt lymphoma, suspension) | 0.636 | 0.285 | 0.903 | > 16 | 0.962 | > 10 | 0.617 | 1.3 | 0.365 | 0.441 | 0.968 | > 8 | 0.688 | 3.18 | 0.989 | > 5
EB-3 (Burkitt lymphoma, suspension) | 0.897 | > 2 | 0.953 | > 16 | 0.859 | > 10 | 0.801 | 5.99 | 0.921 | > 16 | 0.939 | > 8 | 0.739 | 5.47 | 0.973 | > 5
EBC-1 (lung squamous cell carcinoma, adherent) | 0.933 | > 2 | 0.905 | > 16 | 0.741 | 3.4 | 0.959 | > 10.2 | 0.608 | 2.07 | 0.934 | > 8 | 0.943 | > 16 | 0.863 | > 5
